Test results from article PMC4336329 (PLoS ONE, 2015).
Among all 310,000 compounds or so, about 14,000 (4.5%) showed an effect of 50% or more. Effects have a minus sign here. The list shows a part of the results.

Molecular target: human ether-à-go-go-related gene (hERG) potassium channel (human, UniProt Q12809)
Test: primary screen, population patch clamp on CHO cells stably expressing hERG
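Note: peak tail current of the secondary pulse compared with the same well before compound.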

human ether-à-go-go-related gene (hERG) potassium channel, sequence (Q12809 whole entry, looked up): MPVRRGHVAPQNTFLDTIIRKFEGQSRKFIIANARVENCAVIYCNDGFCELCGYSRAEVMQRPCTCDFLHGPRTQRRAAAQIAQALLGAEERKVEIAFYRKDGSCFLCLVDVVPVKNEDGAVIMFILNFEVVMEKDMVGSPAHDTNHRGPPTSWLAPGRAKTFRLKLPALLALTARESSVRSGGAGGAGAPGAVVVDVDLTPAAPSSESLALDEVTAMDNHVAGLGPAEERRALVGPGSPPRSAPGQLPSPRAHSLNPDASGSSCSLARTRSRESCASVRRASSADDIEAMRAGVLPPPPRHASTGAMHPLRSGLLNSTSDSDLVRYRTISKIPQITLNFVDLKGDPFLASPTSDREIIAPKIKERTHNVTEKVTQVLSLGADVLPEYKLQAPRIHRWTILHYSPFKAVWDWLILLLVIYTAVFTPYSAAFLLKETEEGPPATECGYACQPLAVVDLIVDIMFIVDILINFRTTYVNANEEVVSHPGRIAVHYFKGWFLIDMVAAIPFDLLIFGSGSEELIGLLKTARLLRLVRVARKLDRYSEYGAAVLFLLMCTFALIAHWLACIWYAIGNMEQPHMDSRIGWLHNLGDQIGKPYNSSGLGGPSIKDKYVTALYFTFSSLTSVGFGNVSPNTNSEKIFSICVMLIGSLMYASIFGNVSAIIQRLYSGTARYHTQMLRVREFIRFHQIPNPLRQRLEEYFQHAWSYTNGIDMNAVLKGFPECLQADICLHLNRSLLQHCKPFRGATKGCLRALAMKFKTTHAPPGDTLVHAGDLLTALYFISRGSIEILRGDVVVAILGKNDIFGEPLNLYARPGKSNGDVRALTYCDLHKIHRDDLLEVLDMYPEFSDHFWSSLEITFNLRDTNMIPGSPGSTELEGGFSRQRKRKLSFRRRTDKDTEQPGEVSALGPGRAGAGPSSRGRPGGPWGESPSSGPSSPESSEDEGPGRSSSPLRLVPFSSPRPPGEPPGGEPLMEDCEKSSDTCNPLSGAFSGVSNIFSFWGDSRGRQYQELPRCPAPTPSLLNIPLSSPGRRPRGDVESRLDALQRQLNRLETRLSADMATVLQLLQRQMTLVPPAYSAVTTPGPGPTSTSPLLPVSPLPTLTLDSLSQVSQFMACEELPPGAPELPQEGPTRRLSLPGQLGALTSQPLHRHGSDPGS

Compound | hERG current change (%, negative = inhibition) at 10uM [%]
O=[N+]([O-])c1ccc(O)c(Nc2c([N+](=O)[O-])ccc3nonc23)c1 | 16
CCC(CC)NC(=O)Cc1ccccc1OC | 9.6
Cn1c(=O)c2c(nc(N3CCCC3)n2CC(O)CO)n(C)c1=O (stereo not shown) | 3.09
CCN(CC)CCOC(=O)c1cc(Cl)c(N)cc1OC.Cl | 2.49
COc1ccc(C(CC(=O)c2ccc(C)cc2)Nc2ccc([N+](=O)[O-])cc2)cc1 (stereo not shown) | 10.9
O=[N+]([O-])c1ccc(NC(=S)NCC(c2cccnc2)N2CCOCC2)cc1 (stereo not shown) | -49.9
O=C1C2C3C=CC(C4CC34)C2C(=O)N1/N=C/c1cccs1 (stereo not shown) | 12.5
Cc1n[nH]c(=S)n1/N=C/c1ccc(-c2ccccc2[N+](=O)[O-])o1 | 10.1
CC(C)CNS(=O)(=O)c1ccc(CCC(=O)N2CCOCC2)cc1 | -1.31
COc1cccc(COc2nc3c(c(=O)n(C)c(=O)n3C)n2C)c1 | 1.51
N#Cc1cc2c(=O)n3ccccc3nc2n(-c2ccccc2Cl)c1=O | 7.29
COC(=O)c1ccc(COc2ccc(/C=N/Nc3nc(C)cc(=O)[nH]3)cc2)cc1 | 3.55
O=C1NN(c2ccccc2)C(=O)C2C3C=CC(C4CC34)C12 (stereo not shown) | 14
c1ccc(-n2ncc3c(N4CCCCC4)ncnc32)cc1 | -15.4
CCOC(=O)CSc1nnc(CCc2nc3ccccc3[nH]2)n1C | -0.184
CCN(CC(=O)Nc1ccc2c(c1)OCCO2)C(=O)/C=C/c1ccc(OC)c(OC)c1 | -8.86
COC(=O)CN(c1nc(C)cc(OC)n1)S(=O)(=O)c1ccc(C)cc1 | -8.25
c1ccc(-c2nn3c(Cn4nnc5ccccc54)nnc3s2)cc1 | -4.36
COc1cc(C(N)=O)ccc1OCc1ccccc1 | -5.4
CC(C)NC(=O)c1ccc2c(c1)N(CC(=O)N1CCCCC1)C(=O)C(C)(C)O2 | 10.4

Compound | hERG current change (%, negative = inhibition) at 10uM [%]
CN1CCN(S(=O)(=O)c2ccc(NC(=O)C(C)(C)C)cc2)CC1 | 6.75
COc1cccc(C(=O)NC2CCCc3c2cnn3-c2ccc(C)c(C)c2)c1OC (stereo not shown) | -12.4
O=C(Nc1ccc(N2CCOCC2)cc1)C1CC(O)CN1S(=O)(=O)c1ccc(Cl)cc1 (stereo not shown) | 22.5
CC1=C(C(=O)OCc2ccc3c(c2)OCO3)C(c2ccccc2OCc2ccccc2)NC(=O)N1 (stereo not shown) | 21.7
O=C(Nc1c[nH]c(=O)[nH]c1=O)c1ccc([N+](=O)[O-])cc1 | 10
CC(=O)Oc1ccc(-c2nc3cc(Cl)ccc3c(=O)o2)cc1 | 9.57
CCCCCNCc1cccc(Br)c1.Cl | -12
Cc1ccccc1OCC(=O)N/N=C/c1cc2ccccc2nc1Cl | -2.19
COc1ccc(C(CNC(=O)Cc2c(F)cccc2Cl)N2CCCCC2)cc1 (stereo not shown) | -26.3
Cc1cccc(NC(=O)/C(C#N)=C/c2ccc(Cl)cc2)n1 | 32.8
O=C([O-])Cn1c(COc2ccc(Cl)cc2)nc2ccccc21.[K+] | -1.19
Cc1cc(C)nc(-n2nc(C)cc2NC(=O)C(C)C)n1 | 16.9
CC(=O)c1ccc(-n2c(CCC(=O)O)ccc2-c2ccccc2)cc1 | 9.24
Cc1ccc(CN2CCN(CC(=O)N3CCC4(CC3)OCCO4)C2=O)cc1 | 3
O=C(COc1ccc(S(=O)(=O)NC2CCCCC2)cc1)N1CCN(c2cccc(Cl)c2)CC1 | -22.2
COc1ccc(Cl)cc1NC(=S)NCc1ccco1 | -6.54
COc1ccc(C)cc1NC(=O)c1cc2c(s1)CCC2 | -5.71
O=C(NCc1ccco1)/C(=C/c1ccc(Br)cc1)NC(=O)c1ccco1 | 0.657
Cn1c(NC(=O)Cc2cccs2)cc(=O)n(C)c1=O | 4.44
CN(C)c1cc[n+](CC(=O)Nc2ccc(Oc3ccccc3)cc2)cc1.[Cl-] | -36.5

Compound | hERG current change (%, negative = inhibition) at 10uM [%]
O=C(CSc1ccccn1)N/N=C/c1cccc([N+](=O)[O-])c1 | -9.04
CCOc1ccc(NC(=O)C2CCN(S(=O)(=O)c3ccc4c(c3)NC(=O)C(C)S4)CC2)cc1 (stereo not shown) | 28.5
O=C(O)c1cn(Cc2ccccc2)nc1-c1cccnc1 | 17.5
CC(C)Oc1ccc(CCC(=O)NNC(=S)Nc2ccccc2)cc1 | 28.1
CON=C1CCN(c2ncc(C(F)(F)F)cc2Cl)CC1 | -5.78
O=C(O)C1C2C=CC(C2)C1C(=O)NCc1ccc(Cl)cc1Cl (stereo not shown) | 9.84
COc1ccc(CCNc2oc(-c3ccccc3OC)nc2C#N)cc1 | -20.6
Nc1ccc(Nc2nc(-c3cccs3)cs2)cc1 | 3.53
CO/N=C/C(=N\Nc1ccc(OC)cc1)C(=O)c1ccc(F)cc1 | 9.21
COc1cc(CC(=O)NCc2cccs2)cc(OC)c1OC | -5.54
Cc1nn(C(C)C(=O)NCc2ccccc2)c(C)c1[N+](=O)[O-] (stereo not shown) | 9.44
Cc1c(Cl)cccc1NC(=S)NCc1ccccc1Cl | 22.1
COc1ccc(CC(=O)Nc2cccnc2)cc1 | 21.7
Cc1ccc(-c2noc(C3CCCN(S(=O)(=O)c4ccc(S(=O)(=O)N(C)C)cc4)C3)n2)o1 (stereo not shown) | 7.3
COCCCNC(=O)c1ccc(OC)c(OC2CCN(C(C)C)CC2)c1 | 10.3
CCOc1ccc(S(=O)(=O)N2CCCCC2)cc1NC(=O)C1CSC2(C)CCC(=O)N12 (stereo not shown) | -49.7
CS(=O)(=O)c1ccccc1-c1nnc(-c2ccc(Cl)cc2)o1 | -5.81
CC(C)CCNC(=O)Nc1ccc2c(c1)N(C)C(=O)CS2 | 0.526
